Assay results: the supplement of paper PMC3334620
In all, about 33,000 sequences were measured (“E-score (-0.5 to 0.5)”: median about -0.013, highest 2% from about 0.3 on). The list shows a part of the results.

Each sequence was assayed against T1, Msn1 (UniProt P22148) (assay: PBM E-score (8-mer binding enrichment) (E-score (-0.5 to 0.5)); higher = stronger / more preferred TF binding; most listed sequences are background and not binding sites). Conditions: protein concentration: 200 nM; construct: GST-full length.
T1 sequence: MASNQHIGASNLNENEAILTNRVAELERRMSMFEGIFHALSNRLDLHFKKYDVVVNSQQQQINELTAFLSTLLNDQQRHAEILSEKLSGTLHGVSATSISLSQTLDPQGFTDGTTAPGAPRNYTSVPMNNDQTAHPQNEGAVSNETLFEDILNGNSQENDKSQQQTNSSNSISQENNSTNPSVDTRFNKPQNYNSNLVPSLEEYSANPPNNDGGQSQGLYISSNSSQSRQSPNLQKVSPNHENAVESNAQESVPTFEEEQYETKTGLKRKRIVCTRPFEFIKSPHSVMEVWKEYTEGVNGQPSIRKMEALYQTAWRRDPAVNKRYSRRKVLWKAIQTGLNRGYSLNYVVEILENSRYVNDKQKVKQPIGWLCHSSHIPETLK
Outline: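 Detection of bound protein used fluorescent anti-GST, with scans normalised by masliner. The proteins were GST-tagged yeast transcription factors applied at about 100-200 nM to universal all-10-mer Agilent arrays made double-stranded by primer extension. Each ungapped eight-base word, pooled with its reverse complement, was scored with an E-score from the Universal PBM Analysis Suite.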

| Sequence | PBM E-score |
| --- | --- |
| CAGTTGGG | -0.0934 |
| ATAATCGA | 0.0323 |
| ACTTCCGC | 0.0454 |
| AGAGTGGG | -0.203 |
| CTCAGGAG | -0.11 |
| ACGGCTGC | -0.0997 |
| CACCAGTG | -0.184 |
| CCATCGAA | -0.115 |
| CAGACTAG | -0.151 |
| CCTTATCG | -0.0629 |
| GCTTCGCC | -0.218 |
| AGGTACGC | -0.11 |
| AGCCGAAT | 0.00249 |
| ACGTATTC | 0.0104 |
| AACGCTGG | -0.113 |
| GGCCCCAA | -0.187 |
| CGCTAGGC | -0.174 |
| CATATCAA | 0.133 |
| AAGATAGA | -0.00373 |
| CAGGTATA | -0.0449 |
| ACCAGCTG | 0.116 |
| ACTTGCGG | -0.0312 |
| TACGTACA | 0.186 |
| AAGTCAGG | -0.0755 |

| Sequence | PBM E-score |
| --- | --- |
| CTTGACGC | -0.167 |
| TCCCCTAA | -0.0701 |
| TCGCAAGA | -0.177 |
| ACTGCTGC | -0.142 |
| GTCGGAGA | 0.0165 |
| ATCCAGAG | -0.093 |
| GTGCAAAA | 0.0202 |
| AGTCAGCG | -0.206 |
| GAACCACC | -0.0388 |
| CCATAGGA | 0.0587 |
| TCCAGGAA | -0.122 |
| AAATTCAG | 0.0993 |
| CACCCAAA | 0.0602 |
| CTGCGTAA | -0.00214 |
| ACCAATAA | -0.0367 |
| CTTTTGCA | 0.123 |
| AGATGCAT | -0.0339 |
| CAACTCAG | -0.018 |
| GGATATTA | 0.0953 |
| ACCTTACG | 0.0554 |
| AGGAGACC | -0.235 |
| GCAGCCCC | -0.121 |
| ATGGCGCG | 0.0293 |
| CGTGTGCC | -0.137 |

| Sequence | PBM E-score |
| --- | --- |
| CCGTGCGC | -0.0113 |
| ATGGCTAG | 0.0388 |
| ATAGCTTA | 0.0113 |
| AACGTCGG | 0.0133 |
| CATGATGC | 0.0676 |
| GGTAAGAA | -0.0516 |
| ATCCTCTA | -0.163 |
| TCGACAAA | 0.378 |
| GCTAGCCC | -0.345 |
| ATTTTCAG | 0.162 |
| ATTCGTAG | -0.0809 |
| CACGCGGG | -0.0875 |
| CGAGGCTC | -0.105 |
| GTAAACCA | 0.0125 |
| CTAGCGGA | -0.154 |
| CTCCCCAC | -0.256 |
| AGTAATGC | -0.0808 |
| AACCGAGA | 0.22 |
| AACTCGTA | 0.0507 |
| CGCTCTGC | -0.112 |
| ATTTCCTC | 0.0595 |
| CATAGCGG | -0.189 |
| GCCGCGGC | 0.106 |
| AACGCACA | 0.0119 |

| Sequence | PBM E-score |
| --- | --- |
| ATCATGGA | -0.0629 |
| AAGTTTGC | 0.0417 |
| CGAGAAAG | 0.0577 |
| CGAGCAGA | -0.0524 |
| GCGACCGA | 0.132 |
| AACTTCCC | -0.0261 |
| AATGGAGC | -0.132 |
| GGTCCGAC | 0.0201 |
| GGGTTAAA | -0.105 |
| CTTCTGTA | 0.147 |
| CAGTTTCG | -0.0339 |
| CCTCCCCG | -0.0812 |
| TAACCGCA | 0.0556 |
| AGGAATTA | 0.195 |
| CGATCAAA | 0.0324 |
| ATCGATCC | -0.162 |
| CATGCGCG | 0.11 |
| ATGCTTGG | -0.0374 |
| CTACGAGA | -0.0692 |
| AGAAGAGA | -0.153 |
| ATTTTTCA | 0.0848 |
| AAGAAGTC | 0.102 |
